Results as given in PubChem BioAssay AID1347165 (National Center for Advancing Translational Sciences (NCATS), 2019).
The campaign covered roughly 220,000 compounds. About 5,700 (2.6%) were called active. This list was built around the results that the source calls inconclusive (neither active nor inactive); the mix of calls is not that of the screen. Calls follow the shape of the dose curve; as a rule, active = well fitted inhibition curve with a large enough effect; inconclusive = small, poorly fitted or top-dose-only effect; inactive = no such curve, though single readings can be large or run the other way. A potency beside an inconclusive call is a rough fit, not a confirmed value.

biological target: Lysine-specific demethylase 5B (Homo sapiens) (UniProt Q9UGL1); assay: Primary screen for KDM5B Histone Demethylases FDH-coupled qHTS; settings: FDH-coupled NADH fluorescence (FDH is formaldehyde dehydrogenase); series mostly up to 57.7 µM; also: nearly all actives have a fitted effect of over 70% in size
Chain of UniProt Q9UGL1 (Q9UGL1 whole entry, looked up): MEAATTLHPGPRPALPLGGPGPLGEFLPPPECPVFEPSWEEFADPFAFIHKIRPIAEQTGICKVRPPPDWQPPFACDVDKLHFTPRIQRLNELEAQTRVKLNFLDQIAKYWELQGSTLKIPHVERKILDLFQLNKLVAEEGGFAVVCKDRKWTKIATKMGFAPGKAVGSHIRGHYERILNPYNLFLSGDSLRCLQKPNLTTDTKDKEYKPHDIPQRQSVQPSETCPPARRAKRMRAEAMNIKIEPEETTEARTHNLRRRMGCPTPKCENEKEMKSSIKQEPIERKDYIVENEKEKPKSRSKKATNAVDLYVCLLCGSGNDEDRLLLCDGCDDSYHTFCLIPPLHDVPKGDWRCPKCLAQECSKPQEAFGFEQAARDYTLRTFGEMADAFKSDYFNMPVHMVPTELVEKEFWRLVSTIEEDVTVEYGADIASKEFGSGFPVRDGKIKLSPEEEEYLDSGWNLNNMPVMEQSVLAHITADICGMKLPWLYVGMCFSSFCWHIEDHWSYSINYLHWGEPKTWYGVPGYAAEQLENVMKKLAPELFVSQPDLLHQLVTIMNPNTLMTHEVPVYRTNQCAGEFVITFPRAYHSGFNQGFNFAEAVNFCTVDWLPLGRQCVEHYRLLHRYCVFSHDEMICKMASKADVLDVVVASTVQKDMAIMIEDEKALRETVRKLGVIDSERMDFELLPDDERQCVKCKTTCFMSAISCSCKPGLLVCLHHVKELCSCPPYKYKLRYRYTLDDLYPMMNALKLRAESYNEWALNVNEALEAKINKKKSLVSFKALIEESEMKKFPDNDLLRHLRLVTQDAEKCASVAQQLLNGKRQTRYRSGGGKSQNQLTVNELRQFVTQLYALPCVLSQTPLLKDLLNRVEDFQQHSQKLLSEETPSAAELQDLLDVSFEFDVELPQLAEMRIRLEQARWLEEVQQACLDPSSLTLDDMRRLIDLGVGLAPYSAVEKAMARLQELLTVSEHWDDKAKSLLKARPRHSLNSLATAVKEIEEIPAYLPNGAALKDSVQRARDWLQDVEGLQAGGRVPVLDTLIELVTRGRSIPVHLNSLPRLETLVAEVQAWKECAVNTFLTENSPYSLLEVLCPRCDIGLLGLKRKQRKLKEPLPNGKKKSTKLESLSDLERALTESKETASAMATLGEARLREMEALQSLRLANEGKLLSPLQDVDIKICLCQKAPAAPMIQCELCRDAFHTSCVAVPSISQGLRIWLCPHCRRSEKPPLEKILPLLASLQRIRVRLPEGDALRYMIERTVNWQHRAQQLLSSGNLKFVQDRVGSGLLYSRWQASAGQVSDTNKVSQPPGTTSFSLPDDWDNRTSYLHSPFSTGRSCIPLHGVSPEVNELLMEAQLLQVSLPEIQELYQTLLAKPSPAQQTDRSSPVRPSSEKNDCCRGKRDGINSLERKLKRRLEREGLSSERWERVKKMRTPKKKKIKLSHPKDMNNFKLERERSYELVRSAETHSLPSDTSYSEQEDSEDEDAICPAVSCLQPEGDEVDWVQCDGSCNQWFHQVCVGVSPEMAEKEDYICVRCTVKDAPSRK
Procedure, shortened: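 KDM5BΔAP (200 nM final) in 50 mM HEPES pH 7.5, 0.01% Tween-20 was preincubated 10 min at RT with compound over a concentration range. Substrate mix (H3K4me3 12.5 µM, α-KG 25 µM, Fe²⁺, ascorbate, NAD⁺, FDH) was added, and NADH fluorescence change over 30 min gave dose-response curves.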
Potency is read from the fitted curve at half-maximal effect; tags tell the direction and shape of the fitted curve.

Row | Structure (SMILES) | Potency
1 | COC(=O)c1c(NC(=O)c2c(-c3ccccc3Cl)noc2C)sc2c1CCCC2 | inconclusive: 25.1 µM [inhibitor, partial curve, poor fit]
2 | Clc1ccc(N/N=C/c2cccc(Br)c2)cc1Cl | inconclusive: 39.8 µM [inhibitor, single point]
3 | NC(=O)Cn1ccc2cc(OCC3CCN(C(=O)CC4CC4)CC3)cnc21 | active: 35.5 µM
4 | N#Cc1nc(Cc2ccccc2)oc1N1CCCC1 | inconclusive: 39.8 µM [inhibitor, single point]
5 | Cc1oc(-c2ccccc2)nc1CC(=O)Nc1ccc(Cl)cc1Cl | inactive
6 | CC1(C(=O)NCc2cccnc2)CCCc2cnc(Nc3ccccc3F)nc21 (stereo not drawn) | inactive
7 | Cc1cc(C(=O)CCC(=O)O)c(C)s1 | inactive
8 | CCN(CC)C(=O)Cn1c(=O)n(Cc2ccc(C(=O)NCc3ccccc3Cl)cc2)c(=O)c2ccccc21 | inconclusive: 0.891 µM [inhibitor, full curve, poor fit]
9 | c1nc(-c2cc(NC3CCNCC3)nc3[nH]ccc23)c2sccc2n1 | inconclusive: 11.2 µM [inhibitor, partial curve, poor fit]
10 | COc1ccccc1CNC(=O)C1CCCN(S(=O)(=O)c2cc(-c3noc(C)n3)ccc2C)C1 (stereo not drawn) | inactive
11 | Cn1ccc2c(C(=O)NCC3CCC(=O)N3)nc(-c3ccccc3C#N)cc21 (stereo not drawn) | inactive
12 | COc1cc(NC(=O)N2CCC(CN3CCCC3)CC2)cc(OC)c1OC | inconclusive: 31.6 µM [inhibitor, single point]
13 | Cc1cccnc1CN1C[C@@H](F)[C@@H](OCc2nc3ccc(F)cc3[nH]2)C1 | inconclusive: 31.6 µM [inhibitor, partial curve, poor fit]
14 | Cc1ccc(C)c(NC(=O)Cn2ccn3nc(-c4ccc(F)cc4)c(CO)c3c2=O)c1 | active: 17.8 µM
15 | O=c1c2c(n(Cc3ccccc3)n1-c1ccccc1)CN(Cc1ccc3c(c1)CCO3)CC2 | inconclusive: 31.6 µM [inhibitor, partial curve, poor fit]
16 | CN(C)c1ccc(C(CNS(=O)(=O)c2ccccc2)N2CCc3ccccc32)cc1 (stereo not drawn) | inconclusive: 15.8 µM [inhibitor, partial curve, poor fit]
17 | C/C=C/C=C/C(=O)NC1CC2CCC1(C)C2(C)C (stereo not drawn) | inconclusive: 28.2 µM [inhibitor, single point]
18 | CCNC(=O)c1cccc2c(=O)c(C)c(-c3ccccc3)oc12 | inactive
19 | CCOc1nccnc1NC1CCN(S(=O)(=O)C2CC2)CC1 | active: 31.6 µM
20 | CSCC(=O)N[C@H]1CCN2C(=O)c3cc(-c4ccc(SC)cc4)ccc3NC(=O)[C@H]12 | inconclusive: 28.2 µM [inhibitor, single point]
21 | COc1cc2c(cc1OC)-c1c(c(C(=O)NCc3ccncc3)nn1-c1ccc(Cl)cc1)C2 | inconclusive: 39.8 µM [inhibitor, single point]
22 | CSCC(=O)N[C@H]1CCN2C(=O)c3cc(/C=C/c4ccccc4)ccc3NC(=O)[C@H]12 | active: 15.8 µM

Row | Structure (SMILES) | Potency
23 | Cc1ccccc1Cn1c(=O)n(Cc2ccc(Cl)cc2)c(=O)c2cccnc21 | inconclusive: 1.41 µM [inhibitor, partial curve, poor fit]
24 | COCCn1c(C)cc(C(=O)CSc2nnnn2C2CCCC2)c1C | inconclusive: 15.8 µM [inhibitor, partial curve, poor fit]
25 | N#Cc1ccc(-c2nc(C3CC(=O)N(c4ccc(Cl)cc4)C3)no2)cc1 (stereo not drawn) | inconclusive: 22.4 µM [inhibitor, partial curve]
26 | COCc1ccc(C(=O)N2CCn3nc(CCC(=O)NC4CC4)cc3C2)o1 | inconclusive: 11.2 µM [inhibitor, partial curve, poor fit]
27 | NC(=O)N1CCCC(C(=O)N2CCN(c3nsc4ccccc34)CC2)C1 (stereo not drawn) | inconclusive: 31.6 µM [inhibitor, partial curve, poor fit]
28 | Cc1nn(C(C)C)c(C)c1NC(=O)c1cc2sccc2n1C | inactive
29 | CC(C)(C)c1ccc(-c2nc(C#N)c(NCCN3CCOCC3)o2)cc1 | inconclusive: 25.1 µM [inhibitor, partial curve, poor fit]
30 | CC(C)c1cccc(NC(=O)c2ccc(Cn3ccn4nc5c(c4c3=O)CCCC5)cc2)c1 | active: 22.4 µM
31 | CCn1cc(S(=O)(=O)c2cc(C)cc(C)c2)c(=O)c2cc(F)c(N3CCCC3)cc21 | inconclusive: 28.2 µM [inhibitor, single point]
32 | O=Cc1ccc(OC(=O)/C=C/c2ccccc2)cc1 | inconclusive: 28.2 µM [inhibitor, partial curve, poor fit]
33 | CN1C(=O)c2cccn2CC1CNC(=O)c1cc2ccccc2[nH]1 (stereo not drawn) | active: 15.8 µM
34 | CCCCCc1c(C)[nH]c2nc3ccccc3n2c1=O | inconclusive: 39.8 µM [inhibitor, single point]
35 | CNC(=O)CNc1nc(-c2ccsc2)nc2ccccc12 | inactive
36 | O=C(COc1ccc2ccc(=O)oc2c1)c1ccccc1 | inconclusive: 22.4 µM [inhibitor, single point]
37 | N#Cc1ccc(C(=O)N2CCC3(CC2)CC(Cc2nc(C4CC4)no2)CCO3)cc1 (stereo not drawn) | inactive
38 | Cc1ccc(C)c(C(=O)COC(=O)c2cc3ccccc3[nH]2)c1 | inactive
39 | COc1ccc(-c2cc(C(F)(F)F)n3nc(C(=O)Nc4cc(Cl)cc(Cl)c4)cc3n2)cc1 | inconclusive: 31.6 µM [inhibitor, partial curve, poor fit]
40 | O=C(Cn1c(CO)cnc1SCc1c(F)cccc1Cl)NCc1ccccc1 | inactive
41 | COC(=O)C1=CN(C(C)C)C=C(C(=O)OC)C1c1ccc(C(F)(F)F)cc1 | inconclusive: 11.2 µM [inhibitor, partial curve, poor fit]
42 | CCCCC(=O)Nc1ccccc1C(=O)OCc1cc(=O)n2nc(C3CCCCC3)sc2n1 | inconclusive: 25.1 µM [inhibitor, partial curve, poor fit]
43 | CC(C)(C)C(=O)N1CC[C@H]2CC(=O)N([C@@H](Cc3ccccc3)C(N)=O)CC[C@H]2C1 | inactive
